# The other results are listed elsewhere or left out.
# Assays:
# HSkMC = human skeletal muscle cells; assay: cytotoxicity call (relative viability < 0.9); settings: 10 µM
# HepG2 = assay: cytotoxicity call (relative viability < 0.9); settings: 10 µM
# S. aureus RN4220 = assay: growth inhibition call (relative growth <= 0.2); settings: 50 µM
SMILES,cytotoxicity call (HSkMC),cytotoxicity call (HepG2),growth inhibition call (S. aureus RN4220)
Nc1cncnc1,inactive,inactive,inactive
C[C@H](CO)N1C[C@H](C)[C@H](CN(C)C(=O)Nc2ccccc2)Oc2ccc(NS(C)(=O)=O)cc2CC1=O,inactive,inactive,inactive
C[C@H](NC(=O)C[C@H]1CC[C@H](NC(=O)CN2CCOCC2)[C@H](CO)O1)c1ccccc1,inactive,inactive,inactive
Cc1cccc(N(C)C(=S)Oc2ccc3ccccc3c2)c1,inactive,inactive,inactive
COc1ccc(NC(=O)Nc2ccc3c(c2)C(=O)N([C@H](C)CO)C[C@@H](C)[C@H](CN(C)C(=O)Nc2ccc(C(F)(F)F)cc2)O3)cc1,inactive,inactive,inactive
Cc1noc(C)c1NC(=O)N(C)C[C@@H]1Oc2c(NC(=O)Nc3cccc4ccccc34)cccc2C(=O)N([C@@H](C)CO)C[C@H]1C,inactive,inactive,inactive
O=C(CCCCCCC(=O)Nc1ccc([C@H]2C[C@H](c3ccccc3)O[C@H](c3ccccc3)O2)cc1)NO,inactive,inactive,inactive
COc1ccc(S(=O)(=O)N(C)C[C@H]2Oc3cc(C#CC4CCCC4)ccc3S(=O)(=O)N([C@@H](C)CO)C[C@@H]2C)cc1,inactive,inactive,inactive
C[C@@H]1CN([C@H](C)CO)S(=O)(=O)c2ccc(C#CCN(C)C)cc2O[C@@H]1CN(C)Cc1cccnc1,inactive,inactive,inactive
O=C(O)[C@H]1NC(=O)[C@@H]1Cc1ccccc1,inactive,inactive,inactive
COc1ccc(S(=O)(=O)N(C)C[C@H]2Oc3ccc(NC(=O)CCN4CCOCC4)cc3C(=O)N([C@@H](C)CO)C[C@H]2C)cc1,inactive,inactive,inactive
COc1ccc(S(=O)(=O)N(C)C[C@@H]2OCCCC[C@H](C)Oc3ccc(NC(=O)Nc4ccc(F)cc4)cc3C(=O)N([C@H](C)CO)C[C@@H]2C)cc1,inactive,inactive,inactive
NC[C@H]1O[C@H](O[C@@H]2[C@H](O)[C@@H](O[C@H]3O[C@H](CO)[C@@H](O)[C@H](N)[C@H]3O)[C@H](N)C[C@@H]2N)[C@H](O)[C@@H](O)[C@@H]1O,inactive,inactive,inactive
C[C@@H]1CN([C@H](C)CO)C(=O)CCCn2nncc2CO[C@@H]1CN(C)S(=O)(=O)c1ccc(C#N)cc1,inactive,inactive,inactive
C[C@H]1CN([C@@H](C)CO)C(=O)CCCn2cc(nn2)CO[C@H]1CN(C)C(=O)Nc1ccnc(N2CCOCC2)c1,inactive,inactive,inactive
C[C@H]1CN([C@@H](C)CO)C(=O)c2c(c3ccccc3n2C)-c2ccccc2CO[C@H]1CN(C)S(=O)(=O)c1cn(C)cn1,inactive,inactive,inactive
Cc1ccc(S(=O)(=O)Nc2cccc3c2O[C@@H](CN(C)C(=O)Nc2ccc(C(F)(F)F)cc2)[C@H](C)CN([C@@H](C)CO)C3=O)cc1,inactive,inactive,inactive
COc1ccc(S(=O)(=O)Nc2cccc3c2O[C@@H](CN(C)Cc2ccc(-c4ccccc4)cc2)[C@H](C)CN([C@@H](C)CO)C3=O)cc1,inactive,inactive,inactive
C[C@H](CO)N1C[C@H](C)[C@H](CN(C)Cc2ccncc2)OCCCC[C@H](C)Oc2ccc(NC(=O)Nc3ccc4c(c3)OCO4)cc2C1=O,inactive,inactive,inactive
C[C@@H]1CCCCO[C@@H](CN(C)Cc2ccccc2)[C@@H](C)CN([C@@H](C)CO)C(=O)c2cc(NC(=O)C3CCCCC3)ccc2O1,inactive,inactive,inactive
Cn1cnc2c1[C@H](C(=O)N1CCN(c3ccccc3)CC1)N(S(C)(=O)=O)CC2,inactive,inactive,inactive
C[C@H](CO)N1C[C@H](C)[C@H](CN(C)C(=O)NC2CCCCC2)Oc2ccc(NC(=O)CCN3CCOCC3)cc2C1=O,inactive,inactive,inactive
Cc1ccc(S(=O)(=O)Nc2ccc3c(c2)C(=O)N([C@@H](C)CO)C[C@H](C)[C@H](CN(C)S(=O)(=O)c2ccc(F)cc2)O3)cc1,inactive,inactive,inactive
C[C@H](CO)N1C[C@H](C)[C@@H](CN(C)CC2CC2)Oc2ccc(NC(=O)CCN3CCOCC3)cc2CC1=O,inactive,inactive,inactive
C[C@H]1CCCCO[C@H](CN(C)C(=O)NC2CCCCC2)[C@@H](C)CN([C@@H](C)CO)C(=O)c2cc(NC(=O)Nc3ccc(C(F)(F)F)cc3)ccc2O1,inactive,active,inactive
O=C(C[C@H]1CC[C@@H]2[C@H](COC[C@H](O)CN2C(=O)Nc2cccc(F)c2)O1)NCCCN1CCOCC1,inactive,inactive,inactive
O=C(O)c1ccc(S(=O)(=O)N(Cc2ccc(OC(F)(F)F)cc2)c2ncc(C(F)(F)F)cc2Cl)cc1,inactive,inactive,active

SMILES,cytotoxicity call (HSkMC),cytotoxicity call (HepG2),growth inhibition call (S. aureus RN4220)
C[C@@H](OCc1ccccc1)[C@H]1NC(=O)[C@@]23C(=O)N[C@@H](Cc4ccccc4)[C@H]2[C@H](C)[C@@]2(C)O[C@H]2[C@@H]3/C=C/C/C=C\CNC(=O)CNC1=O,inactive,inactive,inactive
COc1ccc(S(=O)(=O)N(C)C[C@H]2OCCCC[C@H](C)Oc3ccc(NC(=O)Nc4ccc(F)cc4)cc3C(=O)N([C@H](C)CO)C[C@H]2C)cc1,inactive,inactive,inactive
C[C@@H]1CN([C@H](C)CO)C(=O)c2cccc(NC(=O)c3nc4ccccc4s3)c2O[C@@H]1CN(C)Cc1ccc(-c2ccccc2)cc1,inactive,inactive,inactive
C/C=C/c1ccc2c(c1)O[C@H](CN(C)S(=O)(=O)c1ccccc1)[C@@H](C)CN([C@H](C)CO)S2(=O)=O,inactive,inactive,inactive
C[C@@H]1CN([C@H](C)CO)C(=O)c2cc(C#Cc3cccc(F)c3)cnc2O[C@H]1CN(C)C(=O)C1CCOCC1,inactive,inactive,inactive
C[C@@H]1CCCCO[C@@H](CN(C)Cc2ccc(C(F)(F)F)cc2)[C@@H](C)CN([C@@H](C)CO)C(=O)c2cc(NS(C)(=O)=O)ccc2O1,inactive,inactive,inactive
C[C@@H]1CN([C@H](C)CO)C(=O)c2cccc(NC(=O)Nc3ccccc3)c2O[C@H]1CN(C)S(=O)(=O)c1cn(C)cn1,inactive,inactive,inactive
COc1ccc(NC(=O)Nc2ccc3c(c2)C(=O)N([C@@H](C)CO)C[C@@H](C)[C@H](CN(C)C(=O)Nc2ccccc2)OCCCC[C@@H](C)O3)cc1,inactive,inactive,inactive
C[C@H]1CN([C@@H](C)CO)C(=O)c2cc(NC(=O)Nc3cccc4ccccc34)ccc2O[C@H]1CN(C)Cc1ccc2c(c1)OCO2,inactive,inactive,inactive
O=C(C[C@@H]1CC=CC[C@H](NC(=O)OCC2c3ccccc3-c3ccccc32)C(=O)OC[C@H](Cc2ccccc2)NC1=O)N[C@H](CO)Cc1ccccc1,inactive,inactive,inactive
C[C@@H]1CN([C@H](C)CO)C(=O)c2cc(NC(=O)NC3CCCCC3)ccc2O[C@@H](C)CCCCO[C@@H]1CN(C)S(=O)(=O)c1cccs1,inactive,inactive,inactive
O=c1cc[nH]cc1,inactive,inactive,inactive
CN1C(=O)c2cc(NC(=O)c3cccs3)ccc2OC[C@@H]2O[C@@H](CC(=O)NCC(F)(F)F)CC[C@@H]21,inactive,inactive,inactive
COc1ccccc1CNC(=O)C[C@H]1C[C@H]2c3cc(NC(=O)NC4CCCC4)ccc3O[C@H]2[C@@H](CO)O1,inactive,inactive,inactive
COc1ccc(NC(=O)Nc2cccc3c2O[C@H](CN(C)S(C)(=O)=O)[C@@H](C)CN([C@@H](C)CO)C3=O)cc1,inactive,inactive,inactive
C[C@H](CO)N1C[C@H](C)[C@@H](CN(C)C(=O)Nc2cccc3ccccc23)Oc2ccc(NC(=O)Nc3ccccc3)cc2CC1=O,active,inactive,inactive
COc1ccc(NC(=O)Nc2ccc3c(c2)CC(=O)N([C@@H](C)CO)C[C@H](C)[C@H](CN(C)S(C)(=O)=O)O3)cc1,inactive,inactive,inactive
C=CC[C@@H](CC(=O)N(CCO)Cc1ccccc1)C(=O)NCCOC(=O)[C@H](CC=C)CC(=O)OC(C)(C)C,inactive,inactive,inactive
C[C@H](CO)N1C[C@H](C)[C@H](CN(C)Cc2ccc3c(c2)OCCN3C)OCc2cnnn2CCCC1=O,inactive,inactive,inactive
COc1ccccc1-c1cnc2c(c1)C(=O)N([C@H](C)CO)C[C@@H](C)[C@@H](CN(C)C(=O)c1ccncc1)O2,inactive,inactive,inactive
O=C(C[C@H]1C[C@@H]2c3cc(NC(=O)Nc4ccc(C(F)(F)F)cc4)ccc3O[C@@H]2[C@@H](CO)O1)NCc1cc(F)ccc1F,active,inactive,inactive
C[C@H]1CCCCO[C@@H](CN(C)S(=O)(=O)c2cn(C)cn2)[C@@H](C)CN([C@@H](C)CO)C(=O)c2cc(NS(=O)(=O)c3ccccc3)ccc2O1,inactive,inactive,inactive
CC1C=CC=CC=CC=CC=CC=CC=CC(OC2OC(C)C(O)C(N)C2O)CC(O)C(C(=O)O)C(O)CC(=O)CC(O)CC(O)CC(O)CC(=O)CCCC(=O)CC(=O)OC1C(C)CC(C)C(O)CC(=O)c1ccc(N)cc1 (centres undefined),active,active,inactive
C[C@@H]1CN([C@H](C)CO)C(=O)c2cc(NS(=O)(=O)c3cccs3)ccc2O[C@@H](C)CCCCO[C@@H]1CN(C)S(=O)(=O)c1ccc(Cl)cc1,inactive,active,inactive
O=C(C[C@H]1CC[C@@H]2[C@H](COC[C@@H](O)CN2C(=O)Nc2cc(Cl)cc(Cl)c2)O1)N1CCOCC1,inactive,inactive,inactive
C[C@@H]1CN([C@H](C)CO)C(=O)Cc2cc(NC(=O)CCN3CCOCC3)ccc2O[C@@H]1CN(C)S(=O)(=O)c1ccccc1,inactive,inactive,inactive
